Measurements as given in PubChem BioAssay AID485344 (National Center for Advancing Translational Sciences (NCATS), 2010).
The whole screen tested about 340,000 compounds, of which about 6,900 (2%) were called active. Rule as the data show it: active = inhibition above about 30%; inactive = below that, where a call was filed. Only a part is listed here, and it is no random draw. Entries without a call were filed so in the source.
Also: 0% is about no effect.

What follows are compounds tested against D(2) dopamine receptor (Homo sapiens) (UniProt P14416) (assay: HTS Assay for Allosteric Antagonists of the Human D2 Dopamine Receptor: Primary Screen for Antagonists). Details: HEK293 TREx D2 cells, calcium flux, dopamine EC80; at 10 µM; stronger effect = higher value.
Sequence of UniProt P14416 (P14416 whole entry, looked up): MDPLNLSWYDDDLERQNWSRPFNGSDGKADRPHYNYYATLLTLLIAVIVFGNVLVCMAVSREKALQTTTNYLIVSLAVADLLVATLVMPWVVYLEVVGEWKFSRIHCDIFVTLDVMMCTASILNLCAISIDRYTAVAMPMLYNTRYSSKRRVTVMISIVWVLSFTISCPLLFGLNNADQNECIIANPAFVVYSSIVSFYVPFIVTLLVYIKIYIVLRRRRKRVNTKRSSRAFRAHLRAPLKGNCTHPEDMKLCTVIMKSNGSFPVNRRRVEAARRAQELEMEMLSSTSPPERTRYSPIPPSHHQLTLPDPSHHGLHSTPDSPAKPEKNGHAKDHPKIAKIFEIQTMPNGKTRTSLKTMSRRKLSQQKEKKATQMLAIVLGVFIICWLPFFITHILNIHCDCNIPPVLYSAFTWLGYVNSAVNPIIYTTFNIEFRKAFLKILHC
Procedure, shortened: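 Inhibition of EC80 dopamine-driven calcium flux, recorded kinetically, defines activity here; cells are a tetracycline-induced HEK293 T-REx line expressing force-coupled D2.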
`O=C(/C=C\c1ccc2c(c1)OCO2)NC1CC(=O)N(c2cccc(F)c2)C1` (stereo not given) gave an inhibition of -7.65%.
Work on `O=C(Nc1c(-c2ccc(F)cc2)nc2ccccn12)c1ccccc1F` yielded an inhibition of -2.51%.
Compound `Cc1cccc(CNC(=O)c2ccc(NC(=O)N3CC(C)Sc4ccccc43)cc2)c1` (stereo not given) has an inhibition of 2.63%.
Work on `Nc1c(C(=O)c2ccc(F)cc2)sc(Nc2ccccc2F)c1S(=O)(=O)c1ccc(Br)cc1` yielded an inhibition of 0.633%.
`Cc1ccc(S(=O)(=O)N2CCCCC2)cc1C(=O)N(C)CC(=O)Nc1cccc(F)c1` was tested, and the inhibition was active: 31.6%.
In the case of `Cc1ccc(NC(=O)Cn2c(=O)n(-c3ccccc3)c(=O)c3ccc(C(=O)NCc4ccc5c(c4)OCO5)cc32)c(C)c1`, the inhibition was -11.3%.
`CCOc1ccc(S(=O)(=O)N(CC(=O)Nc2ccc3c(c2)OCO3)c2ccccc2)cc1` gave an inhibition of -5.43%.
For `CC(C)CN(CCNC(=O)CN1C(=O)CSc2ccc(S(=O)(=O)N3CCOCC3)cc21)CC(C)C`, the inhibition was -27.4%.
`CCOc1ccc(C(=O)c2cn(CC(=O)Nc3ccc4c(c3)OCO4)c3ccc(OCC)cc3c2=O)cc1` was tested, and the inhibition was -1.61%.
`COc1ccc(-n2c(=O)c3c(c4cc(OC)ccc4n3C)n(Cc3cc(C)ccc3C)c2=O)cc1` showed an inhibition of 5.45%.
`COC(=O)c1cccnc1-n1c(=O)c2cccnc2n(CC(=O)Nc2c(C)cc(C)cc2C)c1=O` was tested, and the inhibition was 6.74%.
With `O=C(Cn1ncn2nc(-c3cccs3)cc2c1=O)NCc1cccc(Br)c1` the inhibition was 8.31%.
With `Cc1ccc(Cl)cc1S(=O)(=O)N1CCC(C(=O)NC2CCN(Cc3ccccc3)CC2)CC1` the inhibition was active: 31.1%.
For `Cc1ccc(NC(=O)CN2C(=O)COc3ccc(S(=O)(=O)N4CCCCC4)cc32)cc1N(C)C`, the inhibition was -1.84%.
For `COc1ccc(CN(Cc2ccco2)c2cnc(S(C)(=O)=O)nc2C(=O)Nc2ccc(F)cc2)cc1`, the inhibition was -1.41%.
With `COc1ccc(OC)c(-c2csc(-c3c(N)c(C(=O)c4ccccc4)n4ccccc34)n2)c1` the inhibition was -0.867%.
With `CC(=O)c1ccc(Oc2nc(C)nc3c2oc2ccccc23)cc1` the inhibition was -9.88%.
With `CCN(CC)c1ccc2cc(-c3nc(-c4ccc(OC)cc4)cs3)c(=O)oc2c1` the inhibition was active: 71%.
For `CCOC(=O)c1sc(/N=C/c2c(O)ccc3ccccc23)cc1C`, the inhibition was active: 31.4%.
`COc1ccc(N2CCN(S(=O)(=O)c3c(C)[nH]c(=O)[nH]c3=O)CC2)cc1` was tested, and the inhibition was 0.617%.
`COc1ccc(CCNC(=O)C(=O)Nc2ccc(C)cc2)cc1OC` showed an inhibition of -10.4%.
`CCN(C(=O)c1cc2cc3ccc(OC)cc3nc2o1)c1cccc(C)c1` was tested, and the inhibition was -18.4%.
Compound `Cc1ccc(C)c(NC(=O)CSc2nc(-c3ccccc3)cc(=O)[nH]2)c1` has an inhibition of -1.19%.
`CCCCn1c(=O)c2oc3ccccc3c2n(CC(=O)Nc2cccc(Cl)c2C)c1=O` was tested, and the inhibition was 6.08%.
With `CCc1ccccc1NC(=O)C1CCN(S(=O)(=O)c2ccc3[nH]c(=O)ccc3c2)CC1` the inhibition was -2.4%.
With `CCc1cccc(OCC(=O)Nc2ccc(C)c(S(=O)(=O)N3CCCCCC3)c2)c1` the inhibition was active: 31.4%.
For `COc1ccc(CNC(=O)c2nc(Cn3nc(C)c(Br)c3C)no2)cc1OC`, the inhibition was 5.61%.
Work on `Cc1noc(C)c1S(=O)(=O)N1CCC(C(=O)Nc2ccc(Br)cc2)CC1` yielded an inhibition of -9.26%.
For `COc1ccc(Cc2nc3ccc(C(=O)NCc4ccc(OC)cc4OC)cc3o2)cc1`, the inhibition was 25.8%.
Work on `COc1cc(NC(=O)c2sc3nc4n(c(=O)c3c2C)CCCCC4)cc(OC)c1OC` yielded an inhibition of -9.65%.
Compound `CC(C)c1ccc(NC(=O)c2ccc(F)c(S(=O)(=O)N3CCCCCC3)c2)cc1` has an inhibition of 7.44%.
Compound `COc1ccc(S(=O)(=O)NCCc2csc3nc(-c4ccc(OC)c(OC)c4)nn23)cc1C` has an inhibition of -5%.
`O=C(NC1CC1)C1CCN(S(=O)(=O)c2ccc(Cl)cc2)CC1` was tested, and the inhibition was active: 32%.
For `O=C1CCSc2ccc(S(=O)(=O)Nc3ccc(Cl)c(C(F)(F)F)c3)cc2N1`, the inhibition was -3.42%.
In the case of `O=C(Nc1cccc(Cl)c1)NC1CCN(C2CCCCC2)C1` (stereo not given), the inhibition was active: 84.9%.
Compound `CC1CCCN(S(=O)(=O)c2ccc3[nH]c(=O)cc(C(=O)NCCc4ccc(Cl)cc4)c3c2)C1` (stereo not given) has an inhibition of 11.6%.
In the case of `COc1ccc(C)cc1NC(=O)CSc1nc2ccccc2nc1N1CCOCC1`, the inhibition was -14.3%.
For `O=C(COc1ccc(Cl)cc1)Nc1nnc2n1CCS2`, the inhibition was -3.59%.
`Cc1c(CNC2CCCCCC2)c(C(=O)O)c(C)n1Cc1ccc(F)cc1Cl` was tested, and the inhibition was -1.15%.
With `CCOCCCN(C(=O)Nc1ccc(Cl)cc1)C1CCN(C(C)=O)CC1` the inhibition was 3.43%.
With `COc1cc(OC)cc(-c2nc(-c3cccc(C)c3)no2)c1` the inhibition was 10.5%.
With `COc1ccc(NC(=O)CN(C)C(=O)c2oc3ccccc3c2C)cc1` the inhibition was active: 31%.
`COc1ccc(N2CCN(C(CNC(=O)C(=O)NCCc3ccccc3)c3cccnc3)CC2)cc1` (stereo not given) showed an inhibition of 13.3%.
For `COc1cccc(-c2nc(NC(C)C)c3ccccc3n2)c1O`, the inhibition was active: 32.5%.
With `COc1ccccc1NC(=O)CN(C)S(=O)(=O)c1ccc2c(c1)c(=O)n(C)c(=O)n2C` the inhibition was -14.9%.
With `COc1ccc(C)cc1NC(=O)NCc1cccn1Cc1ccccc1` the inhibition was -26.8%.
Work on `Cc1ccc(CCNC(=O)NCc2noc3ccccc23)cc1` yielded an inhibition of 5.08%.
`O=C(NCc1ccccc1)c1ccc2nc(CCc3ccccc3)oc2c1` gave an inhibition of -6.66%.
Compound `Cc1ccccc1CN1c2ccccc2S(=O)(=O)c2ccccc21` has an inhibition of 7.43%.
In the case of `CN(CCOC(=O)c1cccc(Br)c1)C(C)(C)C`, the inhibition was active: 31.1%.
With `O=C(Oc1ccccc1F)c1ccc2c(=O)n3c(nc2c1)CCC3` the inhibition was active: 31.8%.
In the case of `CC(=O)N1CCc2cc(S(=O)(=O)NC(Cc3ccccc3)C(=O)Nc3cccc(C)c3)ccc21` (stereo not given), the inhibition was -22.9%.
`O=C(Cn1ncc2c([nH]c3ccccc32)c1=O)Nc1cccc(C(F)(F)F)c1` showed an inhibition of -9.08%.
`Oc1c(C(c2ccc(F)cc2)N2CCOCC2)sc2nc(-c3ccco3)nn12` (stereo not given) was tested, and the inhibition was 6.52%.
Work on `Cc1ccc(CNCc2ccccc2)s1` yielded an inhibition of -10.2%.
Work on `COc1ccc(CCNc2nccn(-c3ccc(C)c(C)c3)c2=O)cc1OC` yielded an inhibition of 6.69%.
In the case of `Cc1cc(C)cc(N2CC(c3nc(-c4cccc(Cl)c4)no3)CC2=O)c1` (stereo not given), the inhibition was 7.12%.
`CC(C)CCNC(=O)c1c2c(nc3ccccc13)C(=O)N(C1CCCCC1)C2` gave an inhibition of -1.41%.
`CC(=O)N1CCOc2cc(S(=O)(=O)Nc3c(C)cccc3C(C)C)c(Cl)cc21` was tested, and the inhibition was 11.8%.
`O=C(Nc1ccccc1F)C1CCN(S(=O)(=O)c2ccc3c(c2)CCCN3C(=O)C2CCC2)CC1` showed an inhibition of 26.1%.
`CCCCN(C)C(=O)c1ccc2c(c1)N(Cc1ccc(F)cc1)C(=O)c1ccccc1S2(=O)=O` gave an inhibition of -3.24%.
`Cc1ccc(-c2nc(CS(=O)CC(=O)N3CCN(c4ccc(F)cc4)CC3)c(C)o2)cc1` (stereo not given) gave an inhibition of 2.8%.
In the case of `CC(C)Oc1ccc(CNC(=O)C2CCCCN2S(=O)(=O)c2ccc(F)cc2)cc1` (stereo not given), the inhibition was -4.33%.
For `CCC(C)NC(=O)Cc1ccc(NC(=O)N2CCCCc3ccccc32)cc1` (stereo not given), the inhibition was 2.53%.
For `Cc1cc(C)cc(OCc2cc(=O)n3c4c(sc3n2)CCCC4)c1`, the inhibition was 13.4%.
For `Cc1ccc(-n2c(=O)c3oc4ccccc4c3n(CC(=O)Nc3ccc(F)c(Cl)c3)c2=O)cc1C`, the inhibition was -12.2%.
`N#Cc1ccccc1NC(=O)C(=O)NCC(c1ccc2c(c1)OCO2)N1CCOCC1` (stereo not given) was tested, and the inhibition was -8.33%.
`O=C(CS(=O)(=O)c1cccc2nsnc12)Nc1ccc(F)cc1F` showed an inhibition of -4.99%.
In the case of `CCc1cccc(C)c1NC(=O)C1CCN(S(=O)(=O)c2cccc3nonc23)CC1`, the inhibition was 14.8%.
Compound `COc1ccc(C(=O)Nc2c(C(=O)c3ccc(F)cc3)oc3ccccc23)cc1` has an inhibition of -0.795%.
`O=C1CC(c2ccc(Cl)cc2)c2cc3c(cc2N1)OCCO3` (stereo not given) showed an inhibition of 6.19%.
`CCCCCn1c(=O)[nH]c2cc(C(=O)N3CCN(c4cccc(OC)c4)CC3)ccc2c1=O` was tested, and the inhibition was 2.94%.
With `COc1ccc(-c2nc3c(c(SCC(=O)Nc4ccccc4OC)n2)Cc2cccc(C)c2O3)cc1` the inhibition was 1.62%.
For `CCCCC(=O)Nc1c(C(=O)N2CCN(c3ccccc3)CC2)oc2ccccc12`, the inhibition was -5.67%.
`CCOc1ccc(CNC(=O)c2cccn2-c2nnc(N3CCCCC3)s2)cc1OC` was tested, and the inhibition was 1.76%.
`CCOCCCNC(=O)c1cc(=O)[nH]c2ccc(S(=O)(=O)N3CCCC3)cc12` showed an inhibition of 0.499%.
`CCc1ccccc1NC(=O)C(CC)Oc1ccccc1-c1nnc(-c2ccccc2)o1` (stereo not given) was tested, and the inhibition was 12.9%.
Work on `O=C(Nc1ccc(C(=O)OCc2cc(=O)n3nc(C4CC4)sc3n2)cc1)c1cccc(Cl)c1` yielded an inhibition of 4.33%.
In the case of `CCOC(=O)CCCN1C(=O)CCn2nc(-c3cn(C)c4ccccc34)cc21`, the inhibition was -0.509%.
For `CCOc1ccc(CCNC(=O)c2cccc(-n3c(C)nc4cccnc43)c2C)cc1`, the inhibition was -3.57%.
`CCCCN(Cc1ccccc1)S(=O)(=O)c1cc(Br)cc2c1N(C(C)=O)CC2` gave an inhibition of -21.4%.
Compound `CCOc1ccc(-n2ccnc2SCC(=O)Nc2ccc3c(c2)OCO3)cc1` has an inhibition of -0.268%.
In the case of `O=C(CSc1nc2ccccc2nc1Cc1ccccc1)Nc1ccccc1C(F)(F)F`, the inhibition was -18.4%.
In the case of `COc1ccc(S(=O)(=O)NCCc2sc3nc(-c4ccc(C)cc4)nn3c2C)cc1F`, the inhibition was -23.7%.
In the case of `COc1cccc(NC(=O)c2c(N3CCCC3=O)c3cc(C)ccc3n2C)c1`, the inhibition was -7.9%.
`O=C(NCCS(=O)(=O)N1CCN(c2ccccc2F)CC1)C1CC(=O)N(c2ccccc2)C1` (stereo not given) was tested, and the inhibition was 4.11%.
`CCOc1ccc(CNC(=O)c2cnc3sc(N(CC)CC)nn3c2=O)cc1` was tested, and the inhibition was -2.76%.
In the case of `Cc1ccc(NC(=O)C2CCCN2S(=O)(=O)c2ccc3c(c2)C(C)(C)C(=O)N3C)cc1` (stereo not given), the inhibition was 7.15%.
`COc1ccc(-c2cc(C)no2)cc1S(=O)(=O)NC1CCC(C)CC1` (stereo not given) showed an inhibition of 2.72%.
With `Cn1cnc(S(=O)(=O)N2CCCC(C(=O)NCc3ccccc3)C2)c1` (stereo not given) the inhibition was -28.6%.
`CCOc1ccc(NC(=O)c2cc(C)nc3c2c(C)nn3-c2cccc(F)c2)cc1` showed an inhibition of 2.92%.
In the case of `CC1(C(=O)NC2CCCCC2)Cc2ccccc2C(=O)N1Cc1ccc(F)cc1` (stereo not given), the inhibition was 9.75%.
Compound `Cc1ccc(S(=O)(=O)c2nc(-c3ccco3)oc2SCc2ccc(F)cc2)cc1` has an inhibition of 13.1%.
With `COc1ccccc1CNS(=O)(=O)c1ccc2c(c1)CC(C)N2C(=O)C1CCC1` (stereo not given) the inhibition was 5.6%.
For `Cc1c(-c2ccccc2)nc2ccccc2c1C(=O)OCC(=O)Nc1ncc(C(F)(F)F)cc1Cl`, the inhibition was active: 30%.
